Results: PubChem BioAssay AID1259400 (National Center for Advancing Translational Sciences (NCATS), 2018)
Several values for one entry are separate records, joined by “and”; a condition that tells them apart may be missing. Equal values may be shown once. The campaign covered roughly 350,000 compounds. About 2,100 (0.6%) were called active. This list was built around the results that the source calls inconclusive (neither active nor inactive); the mix of calls is not that of the screen.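 The calls were made as follows: active = activity change of -60% or lower, but not beyond a set lower limit; inconclusive = change between -60% and -40%, or beyond the set limit; inactive = change above -40%.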

The molecules below were run against Relaxin receptor 1 (Homo sapiens) (UniProt Q9HBX9) (assay: qHTS Assay for Antagonists of the Relaxin Receptor RXFP1). Conditions: HEK293-RXFP1, relaxin-stimulated cAMP HTRF, 30 min; at 57.5 µM; active compounds read low.
% is scaled to controls: 0 for no effect and ±100 for the full control effect.

UniProt Q9HBX9, sequence (Q9HBX9 whole entry, looked up): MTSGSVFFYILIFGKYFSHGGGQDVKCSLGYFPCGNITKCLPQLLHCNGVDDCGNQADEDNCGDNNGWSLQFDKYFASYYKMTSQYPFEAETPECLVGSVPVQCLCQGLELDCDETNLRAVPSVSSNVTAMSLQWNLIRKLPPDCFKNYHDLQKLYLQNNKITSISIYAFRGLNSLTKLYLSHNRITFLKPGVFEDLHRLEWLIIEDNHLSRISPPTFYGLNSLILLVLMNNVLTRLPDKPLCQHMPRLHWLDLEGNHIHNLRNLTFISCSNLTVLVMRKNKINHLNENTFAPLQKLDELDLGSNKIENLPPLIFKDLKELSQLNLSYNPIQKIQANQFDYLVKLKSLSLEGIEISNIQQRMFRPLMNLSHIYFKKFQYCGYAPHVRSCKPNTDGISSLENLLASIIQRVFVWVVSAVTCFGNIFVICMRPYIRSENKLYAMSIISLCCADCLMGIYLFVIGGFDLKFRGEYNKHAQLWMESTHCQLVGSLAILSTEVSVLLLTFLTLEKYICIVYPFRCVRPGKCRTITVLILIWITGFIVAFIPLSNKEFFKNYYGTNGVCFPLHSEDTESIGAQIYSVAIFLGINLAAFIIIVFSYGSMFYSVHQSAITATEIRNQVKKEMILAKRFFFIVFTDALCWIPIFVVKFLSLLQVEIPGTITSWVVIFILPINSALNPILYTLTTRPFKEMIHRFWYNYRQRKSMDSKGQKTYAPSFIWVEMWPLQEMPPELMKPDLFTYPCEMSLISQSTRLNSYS

SMILES	activity change, negative = inhibition
CC1CC(=O)N(CC(=O)NC2CCCCC2)c2ccccc2S1 (stereo unspecified)	inactive: 7.66%
Cc1ccc(C2CC(=O)Nc3c2ccc2ccccc32)cc1[N+](=O)[O-] (stereo unspecified)	inactive: 1.31%
N#CC1=C(N)NC(SCC(=O)c2ccccc2)=C(C#N)C12CCCC2	inconclusive: -58.9%
COc1cccc(/C=N/Nc2nnc3c(n2)[nH]c2ccccc23)c1OC	active: -60.6%
O=C(Nc1ccc2oc(-c3cccnc3)nc2c1)c1ccc(-c2ccccc2)o1	inconclusive: -47.8%
O=C(CCc1nc2ccccc2c(=O)[nH]1)N1CCN(C/C=C/c2ccccc2)CC1	inactive: -18.3%
Cc1ccc(S(=O)c2ccc([N+](=O)[O-])c3nonc23)cc1 (stereo unspecified)	inconclusive: -47.7%
O=C(CSc1nc2c([nH]c3ccccc32)c(=O)n1-c1ccccc1)c1ccccc1	active: -109%
CCOC(=O)CSc1nn(-c2ccccc2)c(=S)s1	inconclusive: -56.4%
CCOc1ccc(C2C(=O)N(C3CCCCCC3)CC(=O)N2CCc2ccccc2)cc1OC (stereo unspecified)	inactive: 10.4%
O=C(O)CCN(Cc1ccccc1)S(=O)(=O)c1c(Cl)cccc1Cl	inconclusive: -42.9%
O=C(Nc1ccc(N2CCN(C(=O)c3ccccc3)CC2)cc1)c1ccc2c(c1)OCCO2	inactive: 5.24%
COc1ccccc1NC(=O)CN1C(=O)c2cccc3cccc1c23	inactive: 7.14%
CC(C)(C)c1ccc(OCC(=O)NCC2(N3CCOCC3)CCCCC2)cc1	inconclusive: -50.7%
C[n+]1cc2c3c(ccc2c2ccc4cc5c(cc4c21)OCO5)OCO3	inconclusive: -51.8%
CC1CCN(C(=O)CSc2nc(N)c3c4c(sc3n2)CN(C)CC4)CC1	inactive: -6.6%
O=C(N/N=C/c1ccc(Sc2ccccn2)o1)c1cc2ccccc2cc1O	inconclusive: -57.3%
Cc1cc(N/N=C/c2cccc(F)c2)nc(NCc2ccccc2)n1	inconclusive: -44.1%
CC(=O)N1CC(=O)N=C1SCC(=O)Nc1nc(-c2ccccc2)c(-c2ccccc2)s1	active: -86.4%
O=C(O)c1cccc(-c2ccc(/C=N/Nc3nn[nH]n3)o2)c1	inconclusive: -48.1%
COc1cccc(S(=O)(=O)NCc2ccc(C(=O)Nc3ccc(Cl)c(Cl)c3)cc2)c1	inactive: -2.34%
O=C(Nc1ccc2nc(SCC(=O)N3CCOCC3)sc2c1)c1ccc(Br)cc1	inactive: -19.1%

SMILES	activity change, negative = inhibition
CN(C)CCNc1ccc2nnn3c4ccc(O)cc4c(=O)c1c23	inactive: 5.53%
C=C1C(=C/C=C2\CCC[C@]3(C)[C@@H]([C@H](C)/C=C/[C@@H](O)C4CC4)CC[C@@H]23)C[C@@H](O)C[C@@H]1O	active: -72.3%
Cc1cnc(C(=O)OC(C)C(=O)NC2CCCc3ccccc32)cn1 (stereo unspecified)	inconclusive: -40.5%
O=[N+]([O-])/C=C/c1cn(Cc2ccc(F)cc2)c2ccccc12	inconclusive: -54%
CC1(C)CC(=O)C(=Cc2cn(CCC#N)nc2-c2ccc(Cl)cc2)C(=O)C1	inconclusive: -43.6%
Cc1ccc2oc(=O)n(CCCOc3ccccc3Cl)c2c1	inconclusive: -48%
CC1CCCN(S(=O)(=O)c2ccc3c(c2)c(=O)nc2ccccn23)C1 (stereo unspecified)	inactive: -7.17% and inactive: 6.4%
Oc1ccc(C=NNC(=S)Nc2ccc(F)cc2)c(O)c1	active: -64.4%
O=C(OCC(=O)c1c[nH]c2ccccc12)c1cc(Br)ccc1O	inconclusive: -41.9%
Oc1cccc(C=Nc2cccc3ccccc23)c1O	inconclusive: -56.8%
COc1ccc(NC(=O)NC2COc3ccccc3C2)cc1Cl (stereo unspecified)	inactive: -13.1%
Cc1cccc2c1-c1sc(C(=O)N(C)c3cccc(Cl)c3)cc1CO2	inconclusive: -49.8%
CCOC(=O)c1cnn(-c2cc(Oc3cccc(C)c3)ncn2)c1N	inconclusive: -42.5%
Cc1nnnn1/C(=C\c1ccccc1)C(=O)OCC(=O)Nc1cccc(S(=O)(=O)N(C)C)c1	inconclusive: -41.4%
CCOc1ccc(NS(=O)(=O)c2ccc3[nH]c4c(c3c2)CCCCC4)cc1	inconclusive: -40%
C/C(=N\NC(=O)COc1cc(C)cc(C)c1)c1ccc(N2CCOCC2)cc1	inconclusive: -55.3%
O=C(Nc1ccc(N2CCOCC2)c(Cl)c1)c1ccc(Cl)cc1	active: -82.7%
O=C(NC(=S)NC1CCCc2ccccc21)c1ccc(F)cc1 (stereo unspecified)	inconclusive: -44.2%
Cc1cccc(CN(CC(=O)N/N=C/c2ccco2)S(=O)(=O)c2ccc(Cl)cc2)c1	inconclusive: -54.1%
O=C(N/N=C/C=C/c1ccco1)c1cccs1	active: -79.6%
O=C(O)Cn1c(O)c(C=Nc2ccccc2)sc1=S	inactive: -4.96% and inactive: 5.09%
CCCC(=O)N1CCN(c2ccc(NC(=O)c3cc4ccccc4o3)cc2Cl)CC1	inconclusive: -58.6%

SMILES	activity change, negative = inhibition
Cc1ccccc1NC(=O)c1oc2c(c1C)-c1nn(Cc3cccc(Cl)c3)cc1CC2	inconclusive: -46.9%
CCCNC(=O)Cn1c(-c2ccc(F)cc2)cc(C(=O)OCC)c1C	inconclusive: -46.8%
COc1ccc(C(NC(=O)c2c(F)c(F)c(F)c(F)c2F)c2ccccc2)cc1 (stereo unspecified)	inconclusive: -49.9%
O=C(CCn1c(=S)[nH]c2cc3c(cc2c1=O)OCO3)NCc1ccccc1Cl	active: -69.8%
Cc1cc2ccccc2cc1C(=O)c1ccccc1	inconclusive: -57.3%
CCCCNC(=S)Nc1ccc(SC(F)F)cc1	inconclusive: -41.1%
O=c1c2ccccc2nc2c3ccccc3cnn12	inactive: 1.57%
COc1cc(/C=C2/C(=N)N3N=C(C(C)C)SC3=NC2=O)ccc1OS(=O)(=O)c1ccccc1	inconclusive: -48.3%
Cc1ccc(S(=O)(=O)CCSc2cccc(C(=O)Nc3ccccc3C(=O)O)c2)cc1	inconclusive: -58.7%
O=C(CSCc1cnn(-c2ccccc2)c1-n1cccc1)NCc1cccc(Cl)c1	inconclusive: -40.9%
CCCn1c(NCc2cccc(OC)c2OC)nc2ccccc21	inactive: -3.07%
Cc1ccc(NC(=O)Cn2cc(S(=O)(=O)Cc3ccc(F)cc3)c3ccccc32)cc1Cl	inconclusive: -50%
CCOC(=O)N1CCC(Nc2ccc(Cl)cc2N)CC1	inactive: -22.3%
CCS(=O)(=O)c1ncc(Cl)c(C(=O)NCc2ccc(OC)cc2)n1	inconclusive: -49.1%
Cc1cc(C)c2c(CC(=O)Nc3ccccc3C(F)(F)F)coc2c1	inactive: -3.41%
Cc1cccc(N2CCN(C(=O)C3CCN(c4ncnc5c4nc4n5CCCCC4)CC3)CC2C)c1 (stereo unspecified)	inconclusive: -40.7%
Cc1ccc(C)c(N2CCN(C(=O)C3CCCN(c4ncnc5c4nc4n5CCCCC4)C3)CC2)c1 (stereo unspecified)	active: -83%
CCCC(=O)NC(=S)Nc1ccc(S(=O)(=O)Nc2ccc(OCC)cc2)cc1	inactive: -17.2%
CC1(C)CCC(C)(C)c2cc(NC(=O)c3ccc(C(=O)O)cc3)ccc21	inconclusive: -41%
CCCCNC(C(=O)Nc1cccc(S(=O)(=O)N2CCOCC2)c1)c1ccccc1 (stereo unspecified)	inactive: -0.871%
C/C(=N\Nc1ccc(Cl)c(C(=O)O)c1)c1cccs1	inactive: 13.5%
COc1ccc(N=N/C(=C\O)C(=O)c2cccs2)cc1	inconclusive: -43.9%

SMILES	activity change, negative = inhibition
Cc1ccc(C)c(N2CCN(S(=O)(=O)c3csc(C(N)=O)c3)CC2)c1	inconclusive: -40.8%
CN(C)c1ccc(/C=N/n2c(-c3ccccc3Br)n[nH]c2=S)cc1	active: -93.6%
CCC1CCCCN1CC(=O)c1c(C)[nH]c2ccccc12 (stereo unspecified)	inconclusive: -40%
CCOc1ccccc1NC(=O)COC(=O)C(CC)c1ccccc1 (stereo unspecified)	inactive: -10.8%
CCN(CC)c1ccc(S(=O)(=O)N2CCOCC2)cc1NC(=O)c1cc(=O)c2ccccc2o1	inactive: -17.8%
O=C(Nc1ccccc1)Nc1cc(OCC(F)(F)F)cc(OCC(F)(F)F)c1	active: -72.2%
CC(C)NC(=S)N/N=C/c1ccc(C(C)(C)C)cc1	inconclusive: -46.9%
O=C(C=Cc1ccccc1O)c1ccccc1O	active: -66.2%
CC1CCCCN1S(=O)(=O)c1ccc(C(=O)N(CCCN(C)C)c2nc3ccc(Br)cc3s2)cc1 (stereo unspecified)	inconclusive: -42.8%
CCc1ccc(CNC(=O)c2ccc(CS(=O)(=O)Cc3cccc(C)c3)o2)cc1	inconclusive: -52.3%
C[C@H](NC(=O)c1ccc(C(C)(C)C)cc1)C(=O)N1CCC2(CC1)NCCc1[nH]cnc12	inconclusive: -47.2%
COc1ccc(C(=O)NNC(=S)NC(=O)c2cc(-c3ccccc3)nc3ccccc23)cc1	inconclusive: -44.3%
CCOC(=O)c1ccc(NC(=O)c2c(NCc3cc(OC)ccc3OC)sc3c2CCC3)cc1	inconclusive: -48.5%
CCN(CC(=O)Nc1c(F)cccc1F)C(=O)Cc1ccc2c(c1)CCC2	inconclusive: -47.6%
COc1cccc(-c2nc(SCC(=O)NC3CCCC3)c(-c3ccc(F)cc3)[nH]2)c1	inconclusive: -48.8%
CC(=O)C(Sc1nc(NC(C)(C)C)nc(N(C)C)n1)C(C)=O	inactive: 4.66%
COc1cc2nc(SCC(=O)Nc3cccc(C)c3)n3nc(CCn4c(C)nc5ccccc54)nc3c2cc1OC	inactive: -3.78%
CCCCOC(=O)CNc1n[nH]c(=S)[nH]c1=O	active: -63.5%
Cc1ccc(-c2csc(N(CCCN(C)C)C(=O)c3ccco3)n2)cc1	inconclusive: -43.1%
Cc1ccc(OCC(=O)NNC(=O)c2ccccc2OCc2c(C)noc2C)cc1	inconclusive: -44.5%
